Experimental findings from the supplement of paper PMC11283458 are described below.

This is one part of the list. Repeats are few or missing, and single values can be far off.

For assay [1], the system named is Mef2d microexon dual Nano/Firefly luciferase splicing reporter in Neuro-2a cells. As to the kind of experiment: B-score of Firefly/Nano luminescence ratio, V1 Mef2d microexon reporter (B-score (plate-normalised)); higher = more Mef2d microexon inclusion. The settings on record: 24 h.
Assay [2] shares this test system. Briefly: B-score of Nano/Firefly luminescence ratio, V2 Mef2d microexon reporter (B-score (plate-normalised)); higher = more Mef2d microexon inclusion. The settings on record: 24 h.
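Throughout, for B-score of Nano/Firefly luminescence ratio, V2 Mef2d microexon reporter: compounds at 4 µM (PKI library 0.5 µM) on Dox-inducible N2A Flp-In cells with PEST-tagged luciferases, 384-well plates, B-score from per-plate median-polish residual over median absolute residual.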

`CCN(CC)C(=O)ON=C(N)c1cc(Br)c(OC)c(Br)c1` (4 µM): the B-score in assay [1] was 11.3; in assay [2], 3.58.

Consider `N#C/C(=C\Nc1cc(C(F)(F)F)cc(C(F)(F)F)c1)S(=O)(=O)c1cccs1` (4 µM), for which the B-score was -4.68 in assay [1] and -5.44 in assay [2].

For `Clc1ccc(N=Cc2c(-c3ccccc3)nc3n2CCS3)cc1` (4 µM), the B-score was 3.97 in assay [1] and 1.32 in assay [2].

With `CCCCCCOC(=O)c1cc([N+](=O)[O-])cc2c1-c1ccc([N+](=O)[O-])cc1C2=C(C#N)C#N` (4 µM), the B-score in assay [1] worked out at 15.6; in assay [2], 2.76.

Consider `N#CC(C#N)=CC=C(Sc1ncc(C(F)(F)F)cc1Cl)c1ccc(Cl)cc1` (4 µM), for which the values for the B-score in assay [1] and in assay [2] were 7.6 and 2.39, respectively.

Consider `CCOC(=O)c1c(NC(=O)c2ccc(-c3ccccc3)cc2)sc(C(C)=O)c1C` (4 µM), for which the B-score is -8.69 in assay [1] and -1.84 in assay [2].

Take `CC(C)(C)c1cc2nc(C(F)(F)F)cc(N3CCN(Nc4cc(Cl)cc(Cl)c4)CC3)n2n1` (4 µM): the B-score in assay [1] amounted to 5.57; in assay [2], 2.7.

Take `Cc1ccc(C(=O)Nc2ccc(CN3CCN(C)CC3)c(C(F)(F)F)c2)cc1C#Cc1cnc2cccnn12` (0.5 µM): the B-score in assay [1] was determined as 5.67; in assay [2], 8.2.

Consider `N#CC1=C(N)Oc2ccc3ccccc3c2C1c1cccc(F)c1` (configuration not stated) (4 µM), for which the B-score is -8.07 in assay [1] and -11 in assay [2].

Consider `COc1cc(OC)c(NC(=O)Nc2ncc(C)s2)cc1Cl` (4 µM), for which the results for the B-score in assay [1] and in assay [2] were 0.394 and 6.11, respectively.

As to `CN(C)C=C1SC(=O)N(c2ccccc2)C1=O` (4 µM), the results for the B-score in assay [1] and in assay [2] were 3.85 and 2.63, respectively.
